From the supplement of paper PMC7826260
The list shows a part of the results. Each Rep nickase domain was tested in vitro on the same pool of single strands (3 µM enzyme, 1 h, 37 °C); shown is the middle of each 90-letter strand. Numbers give uncut DNA relative to the enzyme-free pool, as log2; the lower, the more was cut; hits are not called. The scaling is to total reads; uncut strands gain when others are lost, and binding without cutting may add a little.

tested on: T1, Rep nickase domain of tomato golden mosaic virus; test: uncleaved DNA left, log2 of reads against the no-enzyme library (log2 ratio); higher = less cleavage (more negative = more Rep cleavage of the k-mer); sequences stand for … in CTCGTCCG…ACCGGAGA
T1 sequence (residues 1-124 of Rep, tag left off): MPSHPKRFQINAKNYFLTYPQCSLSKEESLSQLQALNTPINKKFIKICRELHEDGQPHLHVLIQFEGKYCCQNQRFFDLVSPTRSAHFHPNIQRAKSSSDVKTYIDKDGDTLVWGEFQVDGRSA
Procedure: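 A pool of 90-nt single-stranded DNAs with seven random bases just before the constant AC of the nick site (name = the seven bases) was cut by 3 µM recombinant His6-SUMO-tagged Rep nickase domain (300 nM DNA, 50 mM HEPES pH 8.0, 50 mM NaCl, 1 mM MnCl2, 1 h, 37 °C, three replicates). Uncut DNA was amplified and sequenced.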

| Sequence | uncleaved DNA left (log2) |
| --- | --- |
| CTATGCA | -0.0371 |
| TCATTGC | -0.237 |
| GGCACAT | 0.0658 |
| CACCCTG | -0.0235 |
| GTGTTCC | 0.155 |
| CAAATTC | -0.0296 |
| TGTCGCC | 0.0239 |
| AAGCATA | 0.0311 |
| CCTAAAA | -0.13 |
| CTTCGCC | -0.24 |
| CAGCGGA | 0.107 |
| TGCCAAC | -0.0312 |
| CGGTTAT | 0.0219 |
| GATCGTA | -0.0459 |
| GTTGGAG | -0.0161 |
| CTATGAA | 0.114 |
| ACCAACG | -0.0622 |
| GCCTTAT | 0.274 |
| ACGACAC | 0.0224 |
| GAAAGCA | -0.0342 |

| Sequence | uncleaved DNA left (log2) |
| --- | --- |
| TGCCCCT | -0.151 |
| CCGGGCC | 0.119 |
| TCGTCTT | -0.215 |
| GTCCTTC | -0.0619 |
| TAGTGCA | -0.0929 |
| GAGCTTA | -0.102 |
| CTTCCGC | -0.178 |
| ACGGCAT | -0.0621 |
| AGCACTT | -0.0536 |
| GAATGCG | -0.0573 |
| TCAGGCG | 0.0175 |
| CGCGCCA | -0.0279 |
| GAGTCAG | -0.0272 |
| GTCCATT | 0.058 |
| CGTATCG | -0.199 |
| GGAGATG | -0.0152 |
| TGGAATG | -0.0858 |
| TATTCGA | -0.192 |
| CGAAGCG | 0.0331 |
| GGTTTGC | -0.138 |
